Here are results for 22 molecules from PMC12136788.

This is one part of the list.

B1: chr10:62551973:62551974:+_ENSG00000170312_ENST00000395284|hu_mus|FALSE|FALSE (ssRNA)
RNA: GGGAGUUCUACAGUCCGACGAUCUAGCAUUUUUGAGAGCAAAUCCAAGCCGUUCUCGUCCAGGUUCUUGACGUGGGAUGCGAGGCUCCCCGGCUUCCACUUGGGAAAGGUGUUCUUGUAGUCCUGCAGGGACUCGACUUCUGGCAACAGAGGAUUGAGCAUCA
B2: 37474625_37474745_1063_CDS_ENSG00000003509_ENST00000002125|human|control|control (ssRNA)
RNA: GGGAGUUCUACAGUCCGACGAUCUUUUAAAAAUGUGUGUUGUUUUAUUGGGCCCAGAGAGGCUACUUUUCCCUGUGCCAUUCUUCGCAAAUAACUGAAGUCCACAUCAGCUGUUAGAUCUGCUGUUCCUGGGGCAAUUAAGACCAACAGAGGAUUGAGCAUCA
B3: 48218050_48221637_871_3pUTR_ENSMUSG00000028343_ENSMUST00000030028|mouse|control|control (ssRNA)
RNA: GGGAGUUCUACAGUCCGACGAUCAUCCUUCAUGUGGAAGAGUAUGAGAAAAGGCAGUCCUUCUUCUGUCAAUUCCUCUCCAUUUUCAAAUGUUAUUUCUCGGACAAGAGGGACACAUUUAUCUUGAAUCCAGUUGUAAGUUACCAACAGAGGAUUGAGCAUCA
B4: chr1:87185206:87185207:+_ENSG00000097033_ENST00000482504|hu_mus|FALSE|FALSE (ssRNA)
RNA: GGGAGUUCUACAGUCCGACGAUCCGGGUUGUUUAUACGACUUGGUGCUUUUCUAUCCAGUUUCUCAUAAACAAAUUCUUCUAUCCUGGCAUUUGGAUUUGGCUGCAACAGCACUUCGGUCUGCUUCAUUAUCUUUUCUGUCCACAACAGAGGAUUGAGCAUCA
B5: chr1:163112212:163112213:-_ENSG00000143248_ENST00000313961|hu_hu|hu_hu_hu_mus_False|8_8 (ssRNA)
RNA: GGGAGUUCUACAGUCCGACGAUCUUUUAUUAUCAGUAAGAGUGAGUUACAUACUAGGCAAAGUAUUGGAUACAAUAAUCAGGAAACAAACACUAUUGGUCCAGAAUUUAAAACUUUAUGAGCGAAGGCUUACAAAUGGACUUACAACAGAGGAUUGAGCAUCA
B6: chr12:8716970:8716971:+_ENSMUSG00000020594_ENSMUST00000111122|mus_hu|motif|central (ssRNA)
RNA: GGGAGUUCUACAGUCCGACGAUCUGGAGAAGCCUUGCCUUUUUGAUCUCCUUUCUCAGGUCCAUCUGUUUCAGCAUCUCGGGUGCCAAAAUUUCCCUUCCUAAAUCGAGAAUCCAAUUUAUCAGCAGGAGAAGAACUUAAUACCAACAGAGGAUUGAGCAUCA
B7: chr9:135984185:135984186:-_ENSG00000160271_ENST00000372050|hu_hu|FALSE|FALSE (ssRNA)
RNA: GGGAGUUCUACAGUCCGACGAUCGUCUGAGCCUGGCAUGUUGAGCUGCACGUAGGCCACCAGCUGCUUGAGGCAGGGAAAGUCCGGAGGUUGACAGAAAUCCUCCGAGUACUGGUCCAGCCAGGUGCCCAGGAUGGAGGAGAUCAACAGAGGAUUGAGCAUCA
B8: chr17:2203652:2203653:-_ENSG00000070366_ENST00000263073|hu_hu|FALSE|FALSE (ssRNA)
RNA: GGGAGUUCUACAGUCCGACGAUCUCGUCCAGGCUGAUAGAUCUGCAGGUCGGGUUUCUUUGUUCUUUUGAUAAUUUUUAGACUACGAUCCUCUUGUCCAGCAGUCCUAGGAAAGGAUUCUUGUCCCCGAUUAUUUUCUGGGUCCAACAGAGGAUUGAGCAUCA
B9: chr7:36506639:36506640:-_ENSMUSG00000043671_ENSMUST00000051377|mus_mus|motif|central (ssRNA)
RNA: GGGAGUUCUACAGUCCGACGAUCGAACAGCACCAGUGCCUGCAGCAGCAUCAUGAACUGGUUAAAUUGCCAUGUCAGGCGGAAGAGAAAAGUUGAUACGAAAAUGGCAAGAAGUGUCAGCCUUUCAGAAAGAGGCUGUAAAUUCAACAGAGGAUUGAGCAUCA
B10: chr14:65675725:65675726:-_ENSMUSG00000021978_ENSMUST00000022550|mus_mus|FALSE|FALSE (ssRNA)
RNA: GGGAGUUCUACAGUCCGACGAUCGAUGGGGGGUUUCCGUGUGAUGUGGGAGACAAGGAAGUUCAUGGCGAUAUCCUCACAGUUGAUGUACUCGUCCACCAUGUCCCGGAUGGCCUGGGGCAUCACAUAAGAAUACAGGUAGGCCAACAGAGGAUUGAGCAUCA
B11: chr1:130260868:130260869:-_ENSMUSG00000026356_ENSMUST00000027602|mus_hu|FALSE|FALSE (ssRNA)
RNA: GGGAGUUCUACAGUCCGACGAUCAGUGAGUCGUUUGGGAUCACGAGGGAACAUGGAGGUCUGACGAACAUUAUGCAAUCCCAGAAACAGCAUAGUAACUCGUUCCAAUCCAAUGCCUCCACCAGCAUGAGGAGGGGCUCCAAACAACAGAGGAUUGAGCAUCA
B12: chr17:74801258:74801259:+_ENSMUSG00000024069_ENSMUST00000024870|mus_mus|FALSE|FALSE (ssRNA)
RNA: GGGAGUUCUACAGUCCGACGAUCGUUGAUUGCACCGAACAGAAGGAUCUUCCAGGACCUCCGGUCAGCUGCGACAAGUCUAAAUUCCUGUAGUAACUUUCCAAAAAAAGAUCUCUGUGGCUUUCGAAAGAGAUGAAUCGUCCCCAACAGAGGAUUGAGCAUCA
B13: chr5:31409407:31409408:-_ENSG00000113360_ENST00000513349|hu_mus|FALSE|FALSE (ssRNA)
RNA: GGGAGUUCUACAGUCCGACGAUCGAACUCCUUCAGCCGGGGAAAGAAGCAGACGUUCAUGAAAGUGUGGACAUAUUCCAGGUCCUUGUCGAUGUACAGCGCUGCGAUAAAUGAUUCCAAAAGGUCUGCCAAAGUCUUGGUUCUCAACAGAGGAUUGAGCAUCA
B14: chr9:95013113:95013114:-_ENSG00000196305_ENST00000443024|hu_hu|hu_hu_hu_mus_False|48_88 (ssRNA)
RNA: GGGAGUUCUACAGUCCGACGAUCCUCAGUCAGAAAGGGCGUGUAAGGAGCCAUAAGUCUGCACAGAGAAAGCAGGACACUGAACAGGGUUUCUAGGGCCAUGACACAGUCUUCCACCCCACUCUCACCCUUUAACCUCCUCCUCAACAGAGGAUUGAGCAUCA
B15: chrX:71549400:71549401:+_ENSMUSG00000019087_ENSMUST00000019231|mus_hu|mus_mus_mus_hu_False|28_48 (ssRNA)
RNA: GGGAGUUCUACAGUCCGACGAUCGCAGUAGGAAGAGGGAAGCUCUUCAGUCCAGUGCGCUGCAGGGUGGGAAAGCAACAACACGGAACCAAUACUCCCCUCAACCCUCUCAGGUGUACAGGGUCACACAAUCUGGGUCAAAGACAACAGAGGAUUGAGCAUCA
B16: chr8:121872745:121872746:+_ENSMUSG00000031839_ENSMUST00000034300|mus_mus|FALSE|FALSE (ssRNA)
RNA: GGGAGUUCUACAGUCCGACGAUCCUUUGUGGGGACAGUGACAUAGAUUGCCUUCUAAGUCAUCAAAACUGGCUUUGAGGCUAAGCCUCCAGACACCAGAAUCCUGAAUGUAAAUCUGUCUUCUUUAAUCAAUAAUAGAACUCACAACAGAGGAUUGAGCAUCA
B17: chr3:179287964:179287965:+_ENSG00000136518_ENST00000429709|hu_hu|hu_hu_hu_mus_True|18_28 (ssRNA)
RNA: GGGAGUUCUACAGUCCGACGAUCCUUGAGUGGUGAGAUGGCCUCCAUGUUCUCCCUGGGCACGCGGAGGGCAUUGGUGUCUAUGUAGUAGGUGGGCCCGCCCUGCUUGCCUUUAUCGCCAUCUAUUUCCAUCAUUGUACUUCCCAACAGAGGAUUGAGCAUCA
B18: chr11:85347198:85347199:+_ENSG00000171204_ENST00000358867|hu_hu|FALSE|FALSE (ssRNA)
RNA: GGGAGUUCUACAGUCCGACGAUCUUUCUCAAGUGUCUCUUCAAAUACUGCAUAAUGGUAUAGACCAUUUAAUAUUCCAAACAUAAUCUGAAAGACUAGAGGAAUCGCCAUUAAUUUCAUUUGUGUUUGACAAAGCGUCAUCCACAACAGAGGAUUGAGCAUCA
B19: chrX:71549400:71549401:+_ENSMUSG00000019087_ENSMUST00000019231|mus_hu|mus_mus_mus_hu_False|8_18 (ssRNA)
RNA: GGGAGUUCUACAGUCCGACGAUCGCAGUAGGAAGAGGGAAGCUCUUCAGUCCAGUGCGCUGCAGGGUGGGAAAGCAACAACACGGACACCGUCCCACCCUCAACCCCCCCACUGGCAUGUCACACAAUCUGGGUCAUCAAAGACAACAGAGGAUUGAGCAUCA
B20: chr8:41367971:41367972:+_ENSG00000147533_ENST00000520817|hu_hu|FALSE|FALSE (ssRNA)
RNA: GGGAGUUCUACAGUCCGACGAUCAAUAUACAGUAUUAUUCCUAUCAAAUUUUUUUCUCAUAAGUUAUAUUUAUAACAAAACUAUAAUUAAAAUAUUUUUUAUACCUGCUUAUUCCAUAUCCAGGGACACAGCGGGAACAUUUACAACAGAGGAUUGAGCAUCA
B21: 41243356_41243476_1275_CDS_ENSMUSG00000028436_ENSMUST00000030145|mouse|control|control (ssRNA)
RNA: GGGAGUUCUACAGUCCGACGAUCCCUGGAGCAGACAGACUUGACGUUGUACGAUGGCUGCCGUGGAUCCAAGAAGGAGACAUGCGCUUGAGAGCCCACUGCAUACACUGACCACUCACUACCAUAGGCCAGACACACGUUUUCCAACAGAGGAUUGAGCAUCA
B22: 16965487_16965607_2015_CDS_ENSMUSG00000020580_ENSMUST00000020904|mouse|control|control (ssRNA)
RNA: GGGAGUUCUACAGUCCGACGAUCGAUAAAUUCCUUUUCAAGUUUUAACUUGGCAGUCUCAAGCAGGCAGUUUUUAUCUUGUAGAUCUCUAUUGUUAGAUUCCAGCUGCUGAAUCUGUUUGGAACUUUCUGCCUGGGUUUUUCUCAACAGAGGAUUGAGCAUCA

The assay addresses T1, UNK ZnF1-3 (human, UniProt Q9C0B0 31-174).
T1 sequence: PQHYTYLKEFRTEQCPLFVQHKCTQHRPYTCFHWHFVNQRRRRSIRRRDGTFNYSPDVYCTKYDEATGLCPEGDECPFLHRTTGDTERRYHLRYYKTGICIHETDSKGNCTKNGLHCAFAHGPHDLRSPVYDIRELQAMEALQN
The assay can be described thus: nsRBNS (natural sequence RNA bind-n-seq); RBNS binding buffer (assumed for nsRBNS): 25 mM Tris pH 7.5, 150 mM KCl, 3 mM MgCl2, 0.01% Triton X-100, 500 ug/ml BSA, 20 U/ml SUPERase-In, 4 C; UNK is unkempt and MSI1 is Musashi-1; names of the RNAs are library labels; protein concentration not given here; high values mean tight binding.
Take B1: the binding signal amounted to 1.05 enrichment R. The result for B2 reads 1.51 enrichment R; that for B3, 1.1 enrichment R.

Regarding B4, the binding signal came to 0.339 enrichment R. Consider B5, for which the binding signal was 1.05 enrichment R. With B6, the binding signal turned out to be 1.02 enrichment R.

Take B7: the binding signal is 1.4 enrichment R. Then B8, with 0.687 enrichment R. Then B9, with 1.84 enrichment R; and B10, with 0.999 enrichment R; and B11, with 1.34 enrichment R. Then B12, with 0.948 enrichment R; and B13, with 1.11 enrichment R.

As for B14, the binding signal was 0.65 enrichment R. Then B15, with 0.792 enrichment R.

As to B16, the binding signal was found to be 1.06 enrichment R. The result for B17 reads 0.493 enrichment R. The result for B18 reads 0.837 enrichment R; that for B19, 1.65 enrichment R; that for B20, 0.915 enrichment R. B21 yielded a binding signal of 1.24 enrichment R. Then B22, with 0.321 enrichment R.
